Results taken from PubChem BioAssay (NCATS).
“And” between values parts separate entries of the source, which are not always exact repeats. Identical values can stand only once. Inconclusive results, whose numbers are uncertain, are shown with a selection of clear calls. Potencies beside an inconclusive call are fits to weak or partial responses and may not hold up. The source made the active and inactive calls. The call rests on the fitted dose curve; in most records, active means well fitted cell-killing curve with a large enough effect; inconclusive means small, poorly fitted or top-dose-only effect, or effect the other way; inactive means no such curve, though single readings can be large or run the other way.

experiment: Viability qHTS for spleen associated tyrosine kinase inhibitor (SYKi) drug resistant MV4-11 cells (AID 1963824); conditions: SYKi-resistant MV4-11 viability, CellTiter-Glo, 72 h; series mostly up to 45 µM; further: nearly all actives have a fitted effect of over 35% in size
How it was run: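 SYK-inhibitor-resistant MV4-11 AML cells were seeded at 500 per well onto compound and cultured 72 hours (37 °C, 5% CO2). CellTiter-Glo was then added, and after 10 min at room temperature, luminescence gave viability.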
Potency means the concentration at half of the fitted maximal effect; tags describe the fitted curve by direction and shape.

| SMILES | Potency | viability, % of control |
| --- | --- | --- |
| O=C1OC(c2ccc(O)c(S(=O)(=O)O)c2)(c2ccc(O)c(S(=O)(=O)O)c2)c2c(Br)c(Br)c(Br)c(Br)c21 | inactive | – |
| CC(C)[N+](C)(CCC(C(N)=O)(c1ccccc1)c1ccccc1)C(C)C | inconclusive: 29.9 µM [cytotoxic, single point] | – |
| C=CC(C)(C)C12C=C(O)C(=O)N3/C(=C\c4cnc[nH]4)C(=O)NC31N(OC)c1ccccc12 (centres undefined) | inconclusive: 10 µM [cytotoxic, partial curve] | – |
| C=C1C(=O)OC2/C=C(\COO)CC/C=C(\COC(C)=O)CC(OC(=O)C(C)CC)C12 (centres undefined) | inconclusive: 1.12 µM [cytotoxic, full curve] | – |
| CCCN1CCO[C@H]2c3cc(O)ccc3OC[C@@H]21 | inactive | – |
| C[C@]12CCC(=O)C=C1CC[C@@H]1[C@@H]2[C@@H](O)C[C@]2(C)C(=O)CC[C@@H]12 | inactive | – |
| Cc1c(N)nc([C@H](CC(N)=O)NC[C@@H](N)C(N)=O)nc1C(=O)N[C@H](C(=O)N[C@@H](C)[C@H](O)[C@@H](C)C(=O)N[C@@H](C(=O)NCCc1nc(-c2nc(C(=O)NCCC[S+](C)C)cs2)cs1)[C@@H](C)O)C(O[C@H]1O[C@H](CO)[C@H](O)[C@@H](O)[C@H]1O[C@H]1O[C@H](CO)[C@@H](O)[C@H](OC(N)=O)[C@@H]1O)c1cnc[nH]1 (some centres undefined) | inconclusive: 8.11 µM [cytotoxic, partial curve] | – |
| Cc1ccccc1C1=CCN(C)CC1 | inactive | – |
| COC1C(O)C(C)OC(OC2C(CO)O[C@@H](O[C@@H]3CC4CCC5C(CC[C@]6(C)[C@@H](C7=CC(=O)OC7)CC[C@]56O)[C@@]4(C)[C@H](OC(C)=O)C3)C(O)C2O)C1O (some centres undefined) | active: 1.09 µM | – |
| CN1C(=O)[C@@H](NC(=O)[C@H](CCC(F)(F)F)[C@H](CCC(F)(F)F)C(N)=O)N=C(c2ccccc2)c2ccccc21 | inconclusive: 20.9 µM [cytotoxic, single point] | – |
| Cc1ccc(S(=O)(=O)N[C@@H](CCCCN)C(=O)CCl)cc1 | inactive | – |
| C[C@]12CC[C@H](O)C[C@H]1CC[C@@H]1[C@@H]2[C@H](O)C(=O)[C@]2(C)[C@@H](c3ccc(=O)oc3)CC[C@]12O | active: 0.0092 µM | – |
| COc1cc2c(c(OC)c1OC)-c1ccc(SC)c(=O)cc1[C@@H](NC(C)=O)CC2 | inconclusive: 0.0073 µM [cytotoxic, full curve] | – |
| CCN1C[C@]2(COC(=O)c3ccccc3N3C(=O)C[C@H](C)C3=O)CC[C@H](OC)[C@@]34[C@@H]5C[C@H]6[C@H](OC)[C@@H]5[C@](O)(C[C@@H]6OC)[C@](O)([C@@H](OC)[C@H]23)[C@@H]14 | inactive | – |
| CCC1(C2=NCCN2)Cc2ccccc2O1 (centres undefined) | inactive | – |
| CC(C)N(CCC(C(N)=O)(c1ccccc1)c1ccccn1)C(C)C (centres undefined) | inconclusive: 0.335 µM [rising, full curve, poor fit] | – |
| C=CC(C)(O)CC/C=C(\C)C(=O)O[C@H]1[C@H](O)[C@@H](CO)O[C@@H](OC(=O)[C@]23CCC(C)(C)CC2C2=CCC4[C@@]5(C)CC[C@H](O[C@@H]6O[C@H](CO[C@@H]7OC[C@H](O)[C@H](O)[C@H]7O[C@@H]7OC[C@@H](O)[C@H](O)[C@H]7O)[C@@H](O)[C@H](O)[C@H]6O)C(C)(C)C5CC[C@@]4(C)[C@]2(C)CC3)[C@@H]1OC1OC(C)C(O[C@@H]2OC[C@@H](O)[C@H](O[C@@H]3OC[C@@H](O)[C@H](O)[C@H]3O)[C@H]2O)C(O)C1O (some centres undefined) | – | inactive: 77.8% [at 9.25 µM] |
| C[C@]12CC[C@H]3[C@@H](CCC4=CC(=O)CC[C@@H]43)[C@@H]1CC[C@@H]2O | inconclusive: 11.9 µM [cytotoxic, partial curve, poor fit] | – |
| Nc1ccc(Cl)cc1C(=O)c1ccccc1F | inconclusive: 33.5 µM [cytotoxic, single point] | – |
| C[N+](C)(C)CCOC(=O)C(O)(c1ccccc1)c1ccccc1 | inactive | – |

| SMILES | Potency | viability, % of control |
| --- | --- | --- |
| C=C(CO)C(=O)O[C@H]1CC(=C)[C@@H]2C[C@H](O)C(=C)[C@@H]2[C@H]2OC(=O)C(=C)[C@@H]21 | active: 1.61 µM | – |
| CC(=O)OCC1=C(C(=O)O)N2C(=O)[C@@H](N)[C@H]2SC1 | inconclusive: 5.17 µM [cytotoxic, partial curve, poor fit] and inconclusive: 7.31 µM [cytotoxic, partial curve, poor fit] | – |
| COC(=O)N1CCN(C(=O)Cc2ccc(Cl)c(Cl)c2)[C@@H](CN2CCCC2)C1 | inactive | – |
| S=C(NC1CCCCC1)N1CCC(c2cnc[nH]2)CC1 | inconclusive: 16.4 µM [cytotoxic, single point] | – |
| CCN(CC)CCOC(=O)C(C)(c1ccccc1)c1ccccc1 | inactive | – |
| COC1C(O)C(OC2CCC3(C=O)C(CCC4C3CCC3(C)C(C5=CC(=O)OC5)CCC43O)C2)OC(C)C1OC1OC(CO)C(O)C(O)C1O (centres undefined) | active: 0.172 µM | – |
| C[N+]1(CCC(C(N)=O)(c2ccccc2)c2ccccc2)CCCCC1 | inconclusive: 33.5 µM [cytotoxic, single point] | – |
| CCOP(=S)(OCC)Oc1cc(C)nc(C(C)C)n1 | inactive | – |
| C[C@]12CC[C@H](O[C@@H]3O[C@H](CO)[C@@H](O)[C@H](O)[C@H]3O[C@@H]3O[C@H](CO)[C@@H](O)[C@H](O)[C@H]3O)CC1=CC[C@@H]1[C@@H]2CC[C@]2(C)[C@@H](C3=CC(=O)OC3)CC[C@]12O | active: 4.32 µM | – |
| C/C=C(/C)C1C=CC2CC(C)CC(C)C2C1/C(O)=C1\C(=O)NC(CC(C)(O)C(=O)O)C1=O (centres undefined) | inconclusive: 6.32 µM [cytotoxic, partial curve, poor fit] | – |
| CCc1ccc(C2CCNCC2)cc1 | inconclusive: 0.531 µM [cytotoxic, full curve, poor fit] | – |
| CC(=O)[C@H]1CC[C@H]2[C@@H]3CC[C@H]4C[C@](C)(O)CC[C@]4(C)[C@H]3CC[C@]12C | inconclusive: 0.168 µM [cytotoxic, single point] | – |
| O=C(NCCN1CCC2(CC1)C(=O)NCN2c1cccc(F)c1)c1ccc2ccccc2c1 | active: 5.8 µM | – |
| C[C@H]1CCC[C@H](O)CCC/C=C/c2cc(O)cc(O)c2C(=O)O1 | active: 9.2 µM | – |
| CS(=O)(=O)c1ccc(C(=O)C2C(=O)CCCC2=O)c([N+](=O)[O-])c1 | inconclusive: 0.007 µM [rising, full curve] | – |
| Cc1cn(C[C@H](N)C(=O)O)c(=O)n(Cc2cc(-c3ccccc3)sc2C(=O)O)c1=O | inactive | – |
| CC(C)(O)C(Cl)(Cl)Cl | inconclusive: 0.0021 µM [rising, full curve, poor fit] | – |
| COC(=O)C1(C)CCC(O)C2(C)c3cc(O)c(C(C)C)cc3C(O)C(OC(C)=O)C12 (centres undefined) | inactive | – |
| O=C1OC(CCN2CCCCC2)OC1(c1ccccc1)c1ccccc1 (centres undefined) | inconclusive: 33.5 µM [cytotoxic, single point] | – |
